# “And” between values parts separate entries of the source, which are not always exact repeats. Identical values can stand only once. The whole screen tested about 210,000 compounds, of which about 730 (0.35%) were called active. Inconclusive means that the source gave no clear call. Such entries were picked first, then a sample of the others. The call rests on the fitted dose curve; in most records, active means well fitted inhibition curve with a large enough effect; inconclusive means small, poorly fitted or top-dose-only effect; inactive means no such curve, though single readings can be large or run the other way. Where the call is inconclusive, the potency comes from a doubtful curve fit.
# Assay: qHTS Assay for Identifying the Cell-Membrane Permeable IMPase Inhibitors: Potentiation with Lithium; further: nearly all actives have a fitted effect of over 50% in size;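 on activity, negative = IMPase inhibition: plate controls were basal vehicle for no effect and high inhibitor control for full effect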
# Conditions: CHO-M1 cells, IP1 TR-FRET (IP-One), carbachol + lithium; series mostly up to 59.4 µM; activity, negative = IMPase inhibition: at the top concentration
# Description: NIH Chemical Genomics Center [NCGC]
# NIH Molecular Libraries Probe Production centers Network [MLPCN]
# Assay Submitter (PI): Wei Zheng
# Lithium has been widely used for the treatment of bipolar disorder. But lithium has a narrow therapeutic index and it can cause side effects such as thirst, weight gain, tremor, polyuria and memory problems. Although the mechanism for lithium action in treatment of bipolar disorder is still not fully understood, inhibition of inositol monophosphatase (IMPase) and the subsequent depletion of the inositol pool in living cells have been implicated as the primary therapeutic benefit of lithium therapy. Therefore, a selective IMPase inhibitor with reduced side effects might be a good drug candidate to replace lithium for the treatment of bipolar disorder. Several IMPase inhibitors have been discovered previously. However, they are not suitable for therapeutic use because of their poor cell membrane penetrability or oral bioavailability; the development of new cell-permeable IMPase inhibitors is needed.
# IMPase catalyzes the hydrolysis of inositol-1-phosphate (IP1) to release free inositol. Binding of an agonist to a Gq coupled GPCR results in the activation of PLC, which hydrolyzes the PIP2 to form inositol-1,4,5-trisphosphate (IP3) and diacyl glycerol (DAG). While DAG activates protein kinase C (PKC), IP3 triggers the elevation of intracellular free Ca2+. The IP3 is very rapidly inactivated by hydrolysis to IP2, IP1 and then inositol by a series of enzymes including IMPase. Free inositols are used for synthesis of PI and thus start another inositol cycle.
# To identify new cell-permeable IMPase inhibitors, we developed a cell-based IMPase assay in which the cytosolic IP1 is measured by a time-resolved fluorescence resonance energy transfer (TR-FRET) assay. In this assay, an IP1 specific antibody is used to detect the labeled IP1 tracer. When the cell lysate contains the elevated IP1 due to the inhibition of IMPase, the TR-FRET between the labeled antibody and IP1 tracer is disrupted resulting in a reduction in the total signal. Since the TR-FRET is used, this cell-based assay is a homogenous assay without cell wash and medium change that is suitable for assay miniaturization and HTS. In this particular assay, a small amount of lithium is added to potentiate the response of weak activators.
# NCGC Assay Protocol Summary:
# A Chinese hamster ovary (CHO) cell line stably expressing the M1 receptor (CHO-M1) was obtained from ATCC and maintained in F-12 Kaighn's media (Invitrogen, Carlsbad, CA) supplemented with 10 % FBS, 100 units/ml penicillin, 100 ug/ml streptomycin and 250 ug/ml geneticin at 37C, 5% CO2 in a humidified atmosphere. Before the assay, aliquots of cells were frozen and stored at -135C. The assay was performed in 1536-well format. Data are reported for both the ratio of the two emission wavelengths, and also for the component 'donor' channel, Em2=620. […] AC50 values were determined from concentration-response data modeled with the standard Hill equation.
# (1) Frozen CHO-M1 cells were thaw, washed once with fresh media and resuspended in F12K media containing 10% FBS, 100 units/ml penicillin and 100 ug/ml streptomycin. Cells were plated at 4ul/well (2000 cells) in white, tissue culture treated 1536-well plates, and then cultured at 37C, 5 % CO2 for 16 to 30 hours.
# (2) Add 23 nl/well of compound in DMSO solution. The final titration for each compound was between 0.6 nM and 46 uM.
# (4) Incubation at 37C, 5 % CO2 for 30 min.
# (5) Add 1 ul/well of d2-conjugated IP1 (d2-IP1) and 1 ul/well of Eu+ cryptate conjugated anti-IP1 antibody (Eu+-Ab) prepared in the cell lysis buffer, both from the IP-One kit (Cisbio, MA).
# (6) Incubate at room temperature for 10 minutes.
# (7) Detect the assay plate (Ex = 320, Em1 =665 and Em2 620) in a ViewLux plate reader.
# Potency means the concentration at half of the fitted maximal effect.
Structure (SMILES),Potency,"activity, negative = IMPase inhibition"
O=c1c2cc(Br)ccc2[nH]c(=S)n1-c1ccccc1,"inconclusive: 28.2 µM [inhibitor, single point]",–
CN(C)CCNC(=O)c1cccn(Cc2cc(C(F)(F)F)cc(C(F)(F)F)c2)c1=O,–,inactive: -2.58%
COc1ccc(OC)c(NC2=NCCS2)c1,–,inactive: 3.8%
CC1=C(C(=O)O)N2C(=O)C(NC(=O)CCCC(=O)O)C2SC1 (centres undefined),–,inactive: 4.43%
CC1CCCN(C(=O)CN2C3CCC2CC(O)(c2ccc(F)cc2)C3)C1 (centres undefined),–,inactive: 24.1%
CCCC[n+]1cc(/N=C(\[O-])OC)on1,"inconclusive: 10 µM [inhibitor, single point]",–
CN1CCC[C@H]1c1cccnc1,"inconclusive: 28.2 µM [inhibitor, single point]",–
N#Cc1c(Cl)c(Cl)c(Cl)c(C#N)c1Cl,"inconclusive: 25.1 µM [inhibitor, single point]",–
CCc1c(C)nc(N)nc1N1N=C1SCC(=O)OC,–,inactive: 10.7%
O=C(c1cccn2c(=O)c3ccccc3nc12)N1CCC2(CC1)OCCO2,"inconclusive: 22.4 µM [inhibitor, single point]",–
CN1/C(=C\C=C\C2=[N+](C)c3ccc4ccccc4c3C2(C)C)C(C)(C)c2ccccc21,–,inactive: -17.5% [at 38.3 µM]
O=c1ccc2cc(OC3OC(CO)C(O)C(O)C3O)c(O)cc2o1 (centres undefined),active: 10 µM,–
Nc1ncc([N+](=O)[O-])s1,–,inactive: 19.4%
COc1ccc(CNc2oc(-c3cccc4ccccc34)nc2P(=O)(OC)OC)cc1,"inconclusive: 10 µM [inhibitor, partial curve]",–
N#Cc1c(/N=C/c2c(O)n(Cc3ccco3)c(=O)[nH]c2=O)sc2c1CCCC2,–,inactive: -4.6% [at 38.3 µM]
CCOC(=O)c1c(C)n(CC(O)CN2CCOCC2)c2cc(Br)c(OC)cc12 (centres undefined),–,inactive: 5.07%
O=c1[nH]c(=O)n(-c2ccc(F)cc2)c(O)c1C=Nc1ccccc1N1CCCC1,"inconclusive: 28.2 µM [inhibitor, single point]",–
Cn1c(O)c(C(=O)c2ccccc2)c(=O)n(C)c1=O,–,inactive: -6.08% [at 38.3 µM]
CCCNc1nc(OC)nc(N2CC3CC(C2)c2cccc(=O)n2C3)n1 (centres undefined),"inconclusive: 3.16 µM [inhibitor, single point]",–
Clc1cccc(N2CCNCC2)c1,inactive,–
CCCCn1c(=O)c(C(=O)Nc2ccsc2C(=O)OC)c(O)c2ccccc21,"inconclusive: 14.1 µM [inhibitor, single point]",–
Cc1cccc(NC(=O)CSc2ccc(-c3ccco3)nn2)c1,"inconclusive: 28.2 µM [inhibitor, single point]",–

Structure (SMILES),Potency,"activity, negative = IMPase inhibition"
CCC(C)n1c(O)c(C(c2ccccn2)c2c(O)n(C(C)CC)c(=S)[nH]c2=O)c(=O)[nH]c1=S (centres undefined),"inconclusive: 28.2 µM [inhibitor, single point]",–
c1ccc2c(c1)ccc1cc3c(ccc4ccccc43)cc12,"inconclusive: 12.6 µM [inhibitor, single point]",–
Cc1c(C=O)c2ccccc2n1Cc1cccc(F)c1,–,inactive: 5.53%
Cc1ccc(-n2c(O)c(/C=N/c3ncc(Br)cc3Br)c(=O)[nH]c2=O)cc1,"inconclusive: 28.2 µM [inhibitor, single point]",–
COc1cc2c(C(=O)N3CCN(C)CC3)c(C)n(C)c2cc1Br,"inconclusive: 3.16 µM [inhibitor, partial curve]",–
CCn1c(=O)cc(SCC(=O)N2CCC3(CC2)OCCO3)c2ccccc21,"inconclusive: 12.6 µM [inhibitor, single point]",–
C[C@H]1CC[C@@H]2[C@@H](C)[C@H]3[C@H](C[C@H]4[C@@H]5CC=C6CC(O[C@@H]7O[C@H](CO)[C@H](O)[C@H](O[C@@H]8O[C@H](CO)[C@@H](O)[C@H](O)[C@H]8O)[C@H]7O[C@H]7O[C@@H](C)[C@H](O)[C@@H](O)[C@H]7O)CC[C@]6(C)[C@H]5CC[C@]34C)N2C1 (some centres undefined),–,inactive: 38%
CCOc1ccc(-n2nc3c(=S)[nH]nc(C)c3c2C)cc1,active: 5.01 µM,–
CC1=C[C@@H]2c3cccc4[nH]cc(c34)C[C@H]2N(C)C1,"inconclusive: 31.6 µM [inhibitor, partial curve]",–
COc1cc2c(cc1OC)[C@@H]1C(=O)c3ccc4c(c3OC1CO2)CC(C(C)C)O4 (some centres undefined),–,inactive: 10.3%
CCOC(=O)c1ccc(NC(=O)c2c(O)[nH]c(=O)[nH]c2=O)cc1,"inconclusive: 11.2 µM [inhibitor, single point]",–
CCCn1cc(C(=O)O)cn1,–,inactive: -1.54%
Nc1ncnc2c1ncn2[C@@H]1O[C@H](COP(=O)(O)CP(=O)(O)O)[C@@H](O)[C@H]1O,"inconclusive: 25.1 µM [inhibitor, partial curve, poor fit]",–
CC1=NCCc2c1[nH]c1cc(O)ccc21,"inconclusive: 8.91 µM [inhibitor, partial curve] and inconclusive: 14.1 µM [inhibitor, single point]",–
COc1ccc(C(=O)Nc2ccccc2C(=O)NC(C(=O)NCc2ccco2)C(C)C)cc1 (centres undefined),"inconclusive: 35.5 µM [inhibitor, partial curve, poor fit]",–
COc1ccc(CN2C(=O)NC(=O)/C(=C\c3ccco3)C2=O)cc1,–,inactive: 16.7%
O=C1NC(=O)C(=Cc2cc(Cl)ccc2OCc2ccc(C(=O)O)cc2)C(=O)N1,–,inactive: -2.92%
CCCCCCCCCCCCCCC[C@@H](O)[C@@H](N)COP(=O)(O)O,–,inactive: 16.8%
O=C(c1cccn2c(=O)c3cc(Br)ccc3nc12)N1CCC2(CC1)OCCO2,"inconclusive: 11.2 µM [inhibitor, partial curve]",–
CN(C)C1C(=O)C(C(N)=O)=C(O)[C@@]2(O)C(=O)C3=C(O)c4c(O)cccc4[C@@](C)(O)C3[C@H](O)C12 (some centres undefined),active: 3.16 µM,–
C=CCN1C(=O)NC(=O)/C(=C/c2ccc(OC)c(CSc3ccccn3)c2)C1=O,–,inactive: -3.88% [at 38.3 µM]
CC(=O)Nc1ccccc1C(=O)OCC(=O)c1ccc2ccccc2c1,"inconclusive: 28.2 µM [inhibitor, single point]",–
